B1: CPEB3 Ribozyme (parent)
chain: UAACAGGGGGCCACAGCAGAAGCGUUCACGUCGCAGCCCCUGUCAGAUUCUGGUGAAUCUGCGAAUUCUGCUGUAUAUCUC

The source of these data is the RNAGym collection of RNA variant scans (doi:10.1093/nar/gkz1192).

Read counts are not given, so values of variants with three or more changes are uncertain.

The variants in the data set derive from B1. Description: self-cleavage, relative activity (ratio to wild type); higher = more cleavage; in vitro, sequencing. In outline:
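Relative activity was defined as the cleaved/total read fraction for a variant divided by the same fraction for the unmutated ribozyme. CPEB3 self-cleaving ribozyme libraries were made by rounds of error-prone PCR, barcoded, and transcribed in vitro with T7 RNA polymerase for 5 hours at 37°C, and cleavage ran through transcription plus a 15 min DNase I step before EDTA. Illumina sequencing of template-switched reverse transcripts gave the reads, and DNA sequencing mapped the barcodes. Averages come from three batches, using variants with at least 5 reads.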
UAACAGGGGGCCACAGCAGAAGCGUUCACGUCGCAGCCCUUGUCAGGUUCUGGUGAAUCUGCGACUUCUGCUGUAUAUCUC [C40U A47G A65C]: the self-cleavage came out at 0.08.
UAACAGGGGGCCACAGCAGAAGCGUUCACGUCGCAGCCCAUGUCGGAUUCUGGUGAAUCUGCGAAUUCUGCCGUAUAUCUC [C40A A45G U72C]: the self-cleavage came to 0.56.
The same measure for UAACAGGGGGCCACAGCAGAAGCGUUCACGUCGCAGCCCAUGUCAGACUCUGGUGAAUCUGCGAAUUCAGCUGUAUAUCUC [C40A U48C U69A]: 0.18; for UAACAGGGGGCCACAGCAGAAGCGUUCACGUCGCAGCCCCAGUCAGAUUCUGGUGGAUCUGCGAAUUCUGCUGUUUAUCUC [U41A A56G A75U]: 0.18.
Consider UAACAGGGGGCCACAGCAGAAGCGUUCACGUCGCAGCCCAUGUCUGAUCCUGGAGGAUCUGCGAAUUCUGCCGUAUAUCUC [C40A A45U U49C U54A A56G U72C], for which the self-cleavage is 0.08.
On to UAACAGGGGGCCACAGCAGAAGCGUUCACGUCGCAGCCCUUGUCAGAUACUGGUGAGUCUGCGAAUUCUGCUGUGUAUCUC [C40U U49A A57G A75G], for which the self-cleavage is 0.15.
The value for UAACAGGGGGCCACAGCAGAAGCGUUCACGUCGCAGCCCCAGUCAGGUCCUGGUGAAUCUGCGAAUUCUGCUGUAUAUCUC [U41A A47G U49C] was 0.09.
The same measure for UAACAGGGGGCCACAGCAGAAGCGUUCACGUCGCAGCCCCAGUCUGUUUCUGGUGGAUCUGCGAAUACUGCUGUAUAUCUC [U41A A45U A47U A56G U67A]: 0.19; for UAACAGGGGGCCACAGCAGAAGCGUUCACGUCGCAGCCCCAGUCUGAUUCUGGUGAAUCCACGAAUUCUGCUGUACAUCUC [U41A A45U U60C G61A U76C]: 0.17.
The value for UAACAGGGGGCCACAGCAGAAGCGUUCACGUCGCAGCCCGUGUCAGUUUCGGGUGAAGCUGCGAAUUCUGUUGUAUAUCUC [C40G A47U U51G U58G C71U] was 0.05; that for UAACAGGGGGCCACAGCAGAAGCGUUCACGUCGCAGCCCCAGUCAGAUUCUGGUGAUUCGGCGAAUUCUGCUGUAUAUCUC [U41A A57U U60G] was 0.11.
On to UAACAGGGGGCCACAGCAGAAGCGUUCACGUCGCAGCCCGUGUCAGAUUCUGGUGGAUCUGCGAGUUCUGCUGUAUAUCUC [C40G A56G A65G], for which the self-cleavage came out at 0.21.
Turning to UAACAGGGGGCCACAGCAGAAGCGUUCACGUCGCAGCCCUUGUCAGAUUCUGGUGAAUCAGCGAAUUCUGCCGUAUAUCUC [C40U U60A U72C], the self-cleavage stood at 0.53.
As to UAACAGGGGGCCACAGCAGAAGCGUUCACGUCGCAGCCCUUGUCAGAUUCUGGUGAGUCUGCGAAUUCCGCUGUAUAUCUC [C40U A57G U69C], the self-cleavage was 0.39.
The same measure for UAACAGGGGGCCACAGCAGAAGCGUUCACGUCGCAGCCCCAGUCAGGUUCUGGUGAAUAUGCGAGUUCUGCUGUAUAUCCC [U41A A47G C59A A65G U80C]: 0.1.
Turning to UAACAGGGGGCCACAGCAGAAGCGUUCACGUCGCAGCCUCUGUCGGACUCUGCUGAAUCUGCGAAUUCUGCCGUAUAUCUC [C39U A45G U48C G53C U72C], the self-cleavage worked out at 0.16.
For the variant UAACAGGGGGCCACAGCAGAAGCGUUCACGUCGCAGCCCUUGUCGCAUUCUGGUGAAUCUGCGAGUUCUGCCGUAUAUCUC [C40U A45G G46C A65G U72C], the self-cleavage stood at 0.09.
As to UAACAGGGGGCCACAGCAGAAGCGUUCACGUCGCAGCCCUUGUCAGAUUCUGGUGAAUCAGCGAAUUCUGCUGUAUACCUC [C40U U60A U78C], the self-cleavage came out at 0.13.
The value for UAACAGGGGGCCACAGCAGAAGCGUUCACGUCGCAGCCCCAGUCUGAUUCUGGUGAAUCUGCGGAUUCUGCUGUAUAUCUC [U41A A45U A64G] was 0.44; that for UAACAGGGGGCCACAGCAGAAGCGUUCACGUCGCAGCCCUUGACAGAUUCUGGUGAGCCUGCGAAUUCCGCUGUAUAUCUC [C40U U43A A57G U58C U69C] was 0.5.
For the variant UAACAGGGGGCCACAGCAGAAGCGUUCACGUCGCAGCCCAUGUCAGAUUCUGGUGAAUCUGCGAAUCCCGCUGUAUAUCUC [C40A U67C U69C], the self-cleavage amounted to 0.58.
The value for UAACAGGGGGCCACAGCAGAAGCGUUCACGUCGCAGCCCAUGUCAGAUUCUGGUGAAUCUGCGAAUUCUGUCGUAUAUCUC [C40A C71U U72C] was 0.08; that for UAACAGGGGGCCACAGCAGAAGCGUUCACGUCGCAGCCCUUGUCAGAUUCAGGAGGAUCCGCGAAUUCUGCUGUAUAUCUC [C40U U51A U54A A56G U60C] was 0.12; that for UAACAGGGGGCCACAGCAGAAGCGUUCACGUCGCAGCCACUGUCAGAUUCUGGCGAAUCUGCGUAUUCAGCUGUAUAUCUC [C39A U54C A64U U69A] was 0.06.
The same measure for UAACAGGGGGCCACAGCAGAAGCGUUCACGUCGCAGCCCCAGUCAGAUUCUGGUGAAUCUGCGAGUUCUGCUAUAUAUCUC [U41A A65G G73A]: 0.1.
Turning to UAACAGGGGGCCACAGCAGAAGCGUUCACGUCGCAGCCCUUGGCAGAUUCUGGCGAAUCUGCGAAUUCUGCUGUAUAUCUC [C40U U43G U54C], the self-cleavage was found to be 0.48.
The value for UAACAGGGGGCCACAGCAGAAGCGUUCACGUCGCAGCCUCAGUCAGAUUCUGGUGAGUCCGCGUAUUCUGCUGUAUAUCUC [C39U U41A A57G U60C A64U] was 0.1; that for UAACAGGGGGCCACAGCAGAAGCGUUCACGUCGCAGCCCCAGUCGGAUUCUGGUGAAUCUGCGAAUUCUGCUGUAUGUCUC [U41A A45G A77G] was 0.35.
Take UAACAGGGGGCCACAGCAGAAGCGUUCACGUCGCAGCCUCUGUCAGAUUCAGGUGAAUCUGCGAAUCCUGCUGUAUAUCUC [C39U U51A U67C]: the self-cleavage was 0.22.
Regarding UAACAGGGGGCCACAGCAGAAGCGUUCACGUCGCAGCCCUUGUCAGAUUCUGGCGAAUCCGCGAAAUCUGCUGUUUAUCUC [C40U U54C U60C U66A A75U], the self-cleavage is 0.11.
UAACAGGGGGCCACAGCAGAAGCGUUCACGUCGCAGCCCAUGUCAGAUUCAGGUGUAUCUGCGAACUCUGCUGUAUAUCUC [C40A U51A A56U U66C]: the self-cleavage stood at 0.12.
With UAACAGGGGGCCACAGCAGAAGCGUUCACGUCGCAGCCCCAGUCAGAUUCUGGUGAAUCUGCGUAUUUUGCUGUAUAUCUC [U41A A64U C68U], the self-cleavage worked out at 0.33.
The value for UAACAGGGGGCCACAGCAGAAGCGUUCACGUCGCAGCCCAUGUCAGAUUCUGGUGGACCUGCGAAUUCUGCUGUAUAUCUC [C40A A56G U58C] was 0.08; that for UAACAGGGGGCCACAGCAGAAGCGUUCACGUCGCAGCCCUUGUCAGACUCUGGUAUAUCUGCGAAUUCUGCUGUAUAUCUC [C40U U48C G55A A56U] was 0.13.
